Test results taken from paper PMC11995519, “Structural insights into the human NuA4/TIP60 acetyltransferase and chromatin remodeling complex” (Science (New York, N.Y.), 2024).
Results are given in words; binding and its absence hold for the method and conditions named. For part of these data: In cells and extracts the contact can be indirect. Some entries that bind do so weakly or less than the wild type.

Protein sequences, listed by entry. Tags and fused reporters are not part of them. Lines headed by an entry give the natural chain unless they say otherwise; changes in a name come on top. Chains listed by the source or under a name are the forms on record and can include a tag or linker.
UniProt Q96L91: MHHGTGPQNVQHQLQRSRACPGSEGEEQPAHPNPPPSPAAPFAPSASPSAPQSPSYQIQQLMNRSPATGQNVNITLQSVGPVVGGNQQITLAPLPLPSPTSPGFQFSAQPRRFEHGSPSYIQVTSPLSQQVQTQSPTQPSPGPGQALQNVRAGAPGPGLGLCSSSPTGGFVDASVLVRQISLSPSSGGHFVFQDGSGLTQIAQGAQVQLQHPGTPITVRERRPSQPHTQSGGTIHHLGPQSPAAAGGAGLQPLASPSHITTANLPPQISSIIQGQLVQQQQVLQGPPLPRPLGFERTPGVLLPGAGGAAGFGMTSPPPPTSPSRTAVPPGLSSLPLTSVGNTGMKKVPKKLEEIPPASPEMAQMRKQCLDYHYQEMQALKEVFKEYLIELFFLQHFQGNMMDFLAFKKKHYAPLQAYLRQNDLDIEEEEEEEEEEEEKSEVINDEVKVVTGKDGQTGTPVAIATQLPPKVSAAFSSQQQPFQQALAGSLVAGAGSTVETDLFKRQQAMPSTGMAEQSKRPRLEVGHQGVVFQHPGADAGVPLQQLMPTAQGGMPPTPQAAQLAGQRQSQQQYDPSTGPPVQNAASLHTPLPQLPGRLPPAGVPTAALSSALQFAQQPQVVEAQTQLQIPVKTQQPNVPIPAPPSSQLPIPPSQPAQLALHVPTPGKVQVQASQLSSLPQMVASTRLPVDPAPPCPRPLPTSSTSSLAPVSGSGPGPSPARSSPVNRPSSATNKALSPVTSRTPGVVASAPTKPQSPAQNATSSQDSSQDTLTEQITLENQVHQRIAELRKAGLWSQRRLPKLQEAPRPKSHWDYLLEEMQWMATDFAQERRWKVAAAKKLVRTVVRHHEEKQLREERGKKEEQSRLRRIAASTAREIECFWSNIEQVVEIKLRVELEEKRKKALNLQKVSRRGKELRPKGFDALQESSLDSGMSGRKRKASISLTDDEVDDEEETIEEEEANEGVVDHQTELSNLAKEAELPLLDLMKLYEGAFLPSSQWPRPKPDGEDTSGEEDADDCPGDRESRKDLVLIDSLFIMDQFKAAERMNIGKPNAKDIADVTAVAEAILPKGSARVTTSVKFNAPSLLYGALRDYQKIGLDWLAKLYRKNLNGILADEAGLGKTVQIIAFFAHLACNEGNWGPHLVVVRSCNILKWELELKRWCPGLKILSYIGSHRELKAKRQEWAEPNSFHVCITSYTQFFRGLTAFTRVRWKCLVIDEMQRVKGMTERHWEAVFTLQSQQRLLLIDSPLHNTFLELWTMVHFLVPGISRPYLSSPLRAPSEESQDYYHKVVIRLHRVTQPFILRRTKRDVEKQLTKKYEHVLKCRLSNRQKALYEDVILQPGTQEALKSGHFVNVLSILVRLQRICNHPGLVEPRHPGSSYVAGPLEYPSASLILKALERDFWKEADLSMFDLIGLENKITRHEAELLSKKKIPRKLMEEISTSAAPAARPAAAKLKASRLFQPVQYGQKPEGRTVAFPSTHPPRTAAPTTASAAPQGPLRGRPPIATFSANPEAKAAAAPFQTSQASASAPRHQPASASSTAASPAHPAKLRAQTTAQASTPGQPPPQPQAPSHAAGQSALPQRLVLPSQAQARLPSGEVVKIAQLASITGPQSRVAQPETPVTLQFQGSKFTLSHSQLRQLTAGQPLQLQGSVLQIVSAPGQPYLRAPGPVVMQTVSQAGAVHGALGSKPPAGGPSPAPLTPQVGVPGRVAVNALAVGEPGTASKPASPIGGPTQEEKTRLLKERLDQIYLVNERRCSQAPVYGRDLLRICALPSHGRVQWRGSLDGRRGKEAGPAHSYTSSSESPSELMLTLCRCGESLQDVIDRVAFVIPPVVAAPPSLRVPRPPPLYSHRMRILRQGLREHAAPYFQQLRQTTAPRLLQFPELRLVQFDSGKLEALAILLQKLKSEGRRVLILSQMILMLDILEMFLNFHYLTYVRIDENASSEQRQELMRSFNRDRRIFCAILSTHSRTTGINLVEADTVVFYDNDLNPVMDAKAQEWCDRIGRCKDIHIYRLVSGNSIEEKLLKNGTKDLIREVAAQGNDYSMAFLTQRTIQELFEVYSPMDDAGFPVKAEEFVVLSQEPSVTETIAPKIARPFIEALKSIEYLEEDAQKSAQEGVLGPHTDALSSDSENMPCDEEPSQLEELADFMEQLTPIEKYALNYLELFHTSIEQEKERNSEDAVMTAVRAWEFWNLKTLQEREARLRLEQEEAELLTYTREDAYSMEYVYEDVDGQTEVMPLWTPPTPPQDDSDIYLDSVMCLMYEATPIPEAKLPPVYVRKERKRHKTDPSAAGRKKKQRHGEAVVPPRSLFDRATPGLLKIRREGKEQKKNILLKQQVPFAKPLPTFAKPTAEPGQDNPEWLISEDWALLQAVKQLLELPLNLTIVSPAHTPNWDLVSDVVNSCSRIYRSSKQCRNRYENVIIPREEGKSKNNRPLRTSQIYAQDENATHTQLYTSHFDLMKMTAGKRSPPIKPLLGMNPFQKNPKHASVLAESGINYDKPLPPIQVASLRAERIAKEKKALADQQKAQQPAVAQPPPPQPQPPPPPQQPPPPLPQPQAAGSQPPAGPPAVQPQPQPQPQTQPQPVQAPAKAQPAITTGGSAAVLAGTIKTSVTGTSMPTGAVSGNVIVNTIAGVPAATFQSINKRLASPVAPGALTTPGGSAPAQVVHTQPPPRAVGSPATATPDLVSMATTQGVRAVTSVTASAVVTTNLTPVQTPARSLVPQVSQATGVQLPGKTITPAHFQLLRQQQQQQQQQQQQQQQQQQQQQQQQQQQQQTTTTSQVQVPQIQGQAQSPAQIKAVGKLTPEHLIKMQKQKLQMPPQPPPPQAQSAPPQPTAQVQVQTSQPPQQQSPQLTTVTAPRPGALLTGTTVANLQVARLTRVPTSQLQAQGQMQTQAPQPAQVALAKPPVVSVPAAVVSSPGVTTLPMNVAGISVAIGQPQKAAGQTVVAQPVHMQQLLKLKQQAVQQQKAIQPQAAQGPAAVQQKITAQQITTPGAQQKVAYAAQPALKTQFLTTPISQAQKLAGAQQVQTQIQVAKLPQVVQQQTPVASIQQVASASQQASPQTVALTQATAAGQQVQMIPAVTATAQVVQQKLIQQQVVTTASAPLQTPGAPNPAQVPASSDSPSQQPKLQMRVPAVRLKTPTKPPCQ
EP400–3xFlag-2xStrep lacking the SANT and HD domains (amino acids 2361 to 2530) (Q96L91, form named): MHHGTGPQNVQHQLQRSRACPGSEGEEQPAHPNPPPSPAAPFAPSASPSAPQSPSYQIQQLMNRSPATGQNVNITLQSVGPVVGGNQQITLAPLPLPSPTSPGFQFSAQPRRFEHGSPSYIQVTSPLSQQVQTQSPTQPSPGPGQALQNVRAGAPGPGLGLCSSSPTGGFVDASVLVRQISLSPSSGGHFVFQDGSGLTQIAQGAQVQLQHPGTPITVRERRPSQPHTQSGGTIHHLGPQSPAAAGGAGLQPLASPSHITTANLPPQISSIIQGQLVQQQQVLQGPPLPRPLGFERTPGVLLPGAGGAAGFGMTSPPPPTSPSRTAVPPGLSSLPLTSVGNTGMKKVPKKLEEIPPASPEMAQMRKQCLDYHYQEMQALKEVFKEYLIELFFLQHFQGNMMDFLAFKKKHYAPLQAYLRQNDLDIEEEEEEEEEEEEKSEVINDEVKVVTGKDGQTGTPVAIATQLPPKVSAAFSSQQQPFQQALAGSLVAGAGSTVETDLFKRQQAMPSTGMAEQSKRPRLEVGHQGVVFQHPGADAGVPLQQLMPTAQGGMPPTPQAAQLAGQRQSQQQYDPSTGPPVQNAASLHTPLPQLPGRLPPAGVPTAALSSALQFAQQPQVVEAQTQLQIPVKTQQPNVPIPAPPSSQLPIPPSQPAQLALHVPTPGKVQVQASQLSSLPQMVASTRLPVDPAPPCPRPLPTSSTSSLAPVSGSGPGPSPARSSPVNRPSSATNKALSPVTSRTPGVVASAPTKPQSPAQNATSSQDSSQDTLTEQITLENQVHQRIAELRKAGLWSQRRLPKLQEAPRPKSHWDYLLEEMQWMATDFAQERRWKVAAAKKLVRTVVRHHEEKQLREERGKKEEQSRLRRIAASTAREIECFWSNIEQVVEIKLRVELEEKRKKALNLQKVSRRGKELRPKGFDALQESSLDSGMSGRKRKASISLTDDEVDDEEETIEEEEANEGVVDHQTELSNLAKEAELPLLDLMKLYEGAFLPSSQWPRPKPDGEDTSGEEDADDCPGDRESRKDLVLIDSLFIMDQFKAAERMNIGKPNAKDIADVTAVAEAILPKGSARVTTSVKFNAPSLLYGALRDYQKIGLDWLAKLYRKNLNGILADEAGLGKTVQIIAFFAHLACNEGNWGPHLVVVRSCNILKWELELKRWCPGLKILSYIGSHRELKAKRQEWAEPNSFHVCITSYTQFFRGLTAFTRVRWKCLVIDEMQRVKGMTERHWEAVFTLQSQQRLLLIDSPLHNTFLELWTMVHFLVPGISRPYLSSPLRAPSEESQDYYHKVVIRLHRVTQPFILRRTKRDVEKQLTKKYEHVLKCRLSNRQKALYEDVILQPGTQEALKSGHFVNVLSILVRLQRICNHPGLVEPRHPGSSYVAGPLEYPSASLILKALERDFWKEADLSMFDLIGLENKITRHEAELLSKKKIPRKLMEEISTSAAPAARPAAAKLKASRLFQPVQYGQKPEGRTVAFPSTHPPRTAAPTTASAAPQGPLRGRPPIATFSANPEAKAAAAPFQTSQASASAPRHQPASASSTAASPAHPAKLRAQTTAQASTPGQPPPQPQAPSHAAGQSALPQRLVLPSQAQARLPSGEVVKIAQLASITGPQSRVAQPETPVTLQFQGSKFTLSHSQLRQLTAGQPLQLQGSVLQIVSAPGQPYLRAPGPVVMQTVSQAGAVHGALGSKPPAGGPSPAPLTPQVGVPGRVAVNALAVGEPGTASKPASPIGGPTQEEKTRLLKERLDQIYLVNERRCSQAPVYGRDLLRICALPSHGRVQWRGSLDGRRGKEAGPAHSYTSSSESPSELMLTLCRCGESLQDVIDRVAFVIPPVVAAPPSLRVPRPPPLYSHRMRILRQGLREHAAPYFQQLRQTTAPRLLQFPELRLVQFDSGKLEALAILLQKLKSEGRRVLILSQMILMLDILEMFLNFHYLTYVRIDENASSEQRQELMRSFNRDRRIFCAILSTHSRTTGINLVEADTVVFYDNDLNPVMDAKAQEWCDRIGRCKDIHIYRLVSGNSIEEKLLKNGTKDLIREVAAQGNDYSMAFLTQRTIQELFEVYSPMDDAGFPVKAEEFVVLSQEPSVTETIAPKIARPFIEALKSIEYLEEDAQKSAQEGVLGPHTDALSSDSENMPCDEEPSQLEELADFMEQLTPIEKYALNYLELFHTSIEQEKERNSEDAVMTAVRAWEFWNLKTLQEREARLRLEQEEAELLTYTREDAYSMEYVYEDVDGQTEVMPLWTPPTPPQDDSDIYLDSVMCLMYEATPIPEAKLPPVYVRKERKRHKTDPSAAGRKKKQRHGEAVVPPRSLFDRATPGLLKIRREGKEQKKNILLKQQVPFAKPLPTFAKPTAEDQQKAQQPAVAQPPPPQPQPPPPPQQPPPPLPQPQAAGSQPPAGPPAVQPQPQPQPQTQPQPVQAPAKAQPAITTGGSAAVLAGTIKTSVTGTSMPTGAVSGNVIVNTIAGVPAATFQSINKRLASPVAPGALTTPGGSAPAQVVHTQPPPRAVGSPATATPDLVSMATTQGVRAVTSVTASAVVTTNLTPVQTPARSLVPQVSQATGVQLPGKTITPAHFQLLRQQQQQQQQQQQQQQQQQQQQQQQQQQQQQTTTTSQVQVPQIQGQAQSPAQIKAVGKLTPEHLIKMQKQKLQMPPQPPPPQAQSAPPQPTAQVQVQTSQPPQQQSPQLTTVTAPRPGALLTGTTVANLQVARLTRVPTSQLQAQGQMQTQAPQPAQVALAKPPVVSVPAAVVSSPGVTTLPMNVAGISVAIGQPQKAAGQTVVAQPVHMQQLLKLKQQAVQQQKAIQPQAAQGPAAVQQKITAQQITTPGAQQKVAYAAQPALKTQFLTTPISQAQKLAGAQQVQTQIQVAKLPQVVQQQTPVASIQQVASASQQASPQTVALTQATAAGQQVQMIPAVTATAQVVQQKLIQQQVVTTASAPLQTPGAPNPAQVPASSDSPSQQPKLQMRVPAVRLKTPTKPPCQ
UniProt O96019: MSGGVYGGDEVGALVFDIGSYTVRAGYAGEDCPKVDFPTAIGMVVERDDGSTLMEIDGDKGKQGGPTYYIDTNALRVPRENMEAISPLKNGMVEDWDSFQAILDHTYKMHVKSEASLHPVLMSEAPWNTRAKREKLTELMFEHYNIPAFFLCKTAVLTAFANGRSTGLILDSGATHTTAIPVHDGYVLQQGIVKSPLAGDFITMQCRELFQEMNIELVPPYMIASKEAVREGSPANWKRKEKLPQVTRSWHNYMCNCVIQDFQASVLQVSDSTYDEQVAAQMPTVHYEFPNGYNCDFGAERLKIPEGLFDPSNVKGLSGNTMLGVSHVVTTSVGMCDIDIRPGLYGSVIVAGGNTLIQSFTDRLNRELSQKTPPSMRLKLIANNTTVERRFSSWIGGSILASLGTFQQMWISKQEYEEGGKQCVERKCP

Key:
[1] = biological target: DMAP1–3xFlag-2xStrep mutant of amino acid 190 (D190A/L191A/K192A) (human) (UniProt Q9NPF5); test: co-IP; tandem affinity purification of DMAP1–3xFlag-2xStrep (WT and mutants), immunoblotting, compared with a mock cell line
[2] = biological target: DMAP1–3xFlag-2xStrep lacking the SANT domain (amino acids 149 to 199; ΔSANT) (human) (UniProt Q9NPF5); test: as above
[3] = biological target: WT DMAP1–3xFlag-2xStrep (human) (UniProt Q9NPF5); test: as above
[4] = biological target: DMAP1 with alanine substitutions at L160, F161 and D162 (human) (UniProt Q9NPF5); test: as above
[5] = biological target: DMAP1 with alanine substitutions at L169, R170 and F171 (human) (UniProt Q9NPF5); test: as above
[6] = biological target: EP400 of the reconstituted P400 subcomplex (human) (UniProt Q96L91); test: cryo-EM structure; reconstituted P400 subcomplex co-expressed in Expi293 and purified, glutaraldehyde cross-linked 1 min; 2.6 Å; both purified
[7] = biological target: WT EP400–3xFlag-2xStrep (human) (UniProt Q96L91); test: co-IP; extracts of cells expressing EP400–3xFlag-2xStrep (WT or Δ2361-2530), anti-Flag immunoprecipitation, Flag peptide elution, immunoblotting
[8] = biological target: EP400–3xFlag-2xStrep lacking the SANT and HD domains (amino acids 2361 to 2530) (human) (UniProt Q96L91); test: as above

With “E1A binding protein P400 (EP400) (from UniProt Q96L91 1-3159)” the binding [1] was “binds”, the binding [2] was “no binding” and the binding [3] was “binds”. For the same substance, the binding [4] was “binds” and the binding [5] was “no binding”.

In the case of “DMAP1 of the reconstituted P400 subcomplex (from UniProt Q9NPF5 1-467)”, the binding [6] is reported as “binds”.

In the case of “BAF53a of the reconstituted P400 subcomplex (from UniProt O96019 1-429)”, the binding [6] is reported as “binds”.

For “transformation/transcription domain-associated protein (TRRAP) (from UniProt Q9Y4A5 1-3859)”, the binding [7] was “binds” and the binding [8] was “no binding”.
